Source: PubChem BioAssay AID588855 (National Center for Advancing Translational Sciences (NCATS), 2011)
The whole screen tested about 410,000 compounds, of which about 5,000 (1.2%) were called active. The shares of active, inactive and inconclusive entries below differ from those in the screen. Calls come from the whole dose curve; as a rule, active = well fitted inhibition curve with a large enough effect; inconclusive = small, poorly fitted or top-dose-only effect; inactive = no such curve, though single readings can be large or run the other way. A potency beside an inconclusive call is a rough fit, not a confirmed value.

Test: qHTS for Inhibitors of TGF-b; note: nearly all actives have a fitted effect of over 65% in size
Details: HepG2 CAGA-GFP TGF-b/SMAD3 reporter, GFP fluorescence, 18 h, TGF-beta stimulated, 500 pg/mL final; series mostly up to 46.1 µM; activity, negative = inhibition: at the top concentration
How it was run: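 Inhibition of TGF-beta-driven CAGA-GFP reporter expression in HEPG2 cells is measured by cellular GFP fluorescence after 18 h stimulation with 500 pg/mL recombinant TGF-beta in 1% FBS medium at 37 degrees C.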
% is set by controls: 0 for no effect and ±100 for the full control effect; potency is the fitted concentration of half-maximal effect; tags give direction and shape of the fitted curve.

Row | Structure (SMILES) | Potency | activity, negative = inhibition
1 | O=C(N[C@@H](Cc1ccccc1)C(=O)O)c1ccc(C(F)(F)F)cc1 | inconclusive: 2.24 µM [inhibitor, partial curve, poor fit] | –
2 | Cc1ccc(O)c(CCc2ccccc2)n1 | inconclusive: 3.16 µM [inhibitor, single point] | –
3 | COc1ccc(N2CCN(CCCNC(=O)Cn3c(=O)c4cccn4c4cccnc43)CC2)cc1 | – | inactive: 3.66%
4 | Cc1ccc(C2Nc3cc(C)c(C)cc3-n3c(-c4ccccc4)c4c(=O)n(C)c(=O)n(C)c4c32)o1 (configuration not stated) | – | inactive: -22.3%
5 | Cc1cccc(N2CCN(C(=O)C3CCN(C(=O)c4cc5sccc5n4C)CC3)CC2)c1C | active: 11.2 µM | –
6 | CCOc1ccc(-c2nc(C)c(C(C)=O)n2O)cc1 | – | inactive: 2.19%
7 | O=C(NOC(=O)c1ccccc1Cl)c1cccs1 | – | inactive: 4.8%
8 | CCOc1ccc(CCNC(=O)c2ccc(C)c(S(=O)(=O)N3CCOCC3)c2)cc1OCC | inconclusive: 14.1 µM [inhibitor, single point] | –
9 | Cc1ccc2nc(-c3cccc(SC4CCCCC4)c3)c(NCc3ccccc3)n2c1 | inconclusive: 22.4 µM [inhibitor, single point] | –
10 | C(=C\c1ccccc1)/CN1CCN(C(CCc2ccccc2)c2nnnn2C2CCCC2)CC1 (configuration not stated) | active: 11.2 µM | –
11 | Cn1cnnc1SCC(=O)Nc1ccc2nc(SCc3ccccc3)sc2c1 | inconclusive: 6.31 µM [inhibitor, single point] | –
12 | COc1ccc(CNC(=O)c2ccc3nc(CCc4ccccc4)oc3c2)cc1 | inconclusive: 0.0891 µM [inhibitor, full curve, poor fit] | –
13 | S=C1Cc2ccccc2N1 | active: 5.62 µM | –
14 | O=C(COC(=O)Cc1c(F)cccc1Cl)NC1CCS(=O)(=O)C1 (configuration not stated) | – | inactive: 13.4%
15 | CCOc1ccc(C(=O)c2cn(CC(=O)Nc3cccc(OC)c3)c3cc4c(cc3c2=O)OCCO4)cc1 | inconclusive: 35.5 µM [inhibitor, single point] | –
16 | CC1=CCC2C(=O)N(C(C)c3ccccc3)C(=O)C2C1 (configuration not stated) | inconclusive: 12.6 µM [inhibitor, partial curve, poor fit] | –
17 | Cc1[nH]n2c(=O)cc(-c3ccc(Cl)cc3)nc2c1-c1ccccc1 | active: 10 µM | –
18 | COc1ccccc1C1CC(=O)Oc2cc(C)c(Br)c(C)c21 (configuration not stated) | inconclusive: 35.5 µM [inhibitor, single point] | –
19 | CCCCC(=O)Nc1cc(OC)c(NC(=S)Nc2ccc(OC)cc2)cc1OC | – | inactive: 12.7%
20 | CC(=O)c1sc(NC(=O)CCS(=O)(=O)c2ccc(C)cc2)nc1C | inconclusive: 3.98 µM [inhibitor, full curve, poor fit] | –
21 | Cn1c(=O)c2c(nc(N3CCOCC3)n2Cc2cccc(Br)c2)n(C)c1=O | – | inactive: -18.5%

Row | Structure (SMILES) | Potency | activity, negative = inhibition
22 | CSCc1ccc(C(=O)NC(C)c2ccc(-n3ccnc3)cc2)cc1 (configuration not stated) | – | inactive: -4.34%
23 | O=C(c1cc2ccccc2o1)N1CCN(S(=O)(=O)c2ccccc2)CC1 | inconclusive: 35.5 µM [inhibitor, single point] | –
24 | CC(C)(C)SCCNC(=O)CN(c1ccc(F)c(Cl)c1)S(C)(=O)=O | – | inactive: -8.31%
25 | COc1cc(C2C(C#N)=C(N)Oc3cc(C)n(CCN4CCOCC4)c(=O)c32)cc(OC)c1OC (configuration not stated) | inconclusive: 35.5 µM [inhibitor, partial curve, poor fit] | –
26 | O=C(c1cc(Br)ccc1O)N1CCN(S(=O)(=O)Cc2ccccc2)CC1 | inconclusive: 20 µM [inhibitor, single point] | –
27 | Cc1cccc(-c2nn3c(=O)cc(CN4CCN(C(=O)c5ccccc5Br)CC4)nc3s2)c1 | inconclusive: 25.1 µM [inhibitor, single point] | –
28 | COc1ccccc1N1CCN(C(=O)c2cnn(-c3cccc(Cl)c3)c2C2CCN(C(=O)OC(C)(C)C)CC2)CC1 | inconclusive: 14.1 µM [inhibitor, partial curve, poor fit] | –
29 | OC[C@@H]1CN(Cc2cccc(C(F)(F)F)c2)C[C@H](n2cnc3c(NCc4ccc(F)cc4)ncnc32)O1 | inconclusive: 35.5 µM [inhibitor, single point] | –
30 | CCc1ccccc1NC(=O)c1cc(S(=O)(=O)N2CCc3ccccc32)ccc1F | inconclusive: 1.12 µM [inhibitor, partial curve, poor fit] | –
31 | O=C(Nc1ccncc1)C1CCN(S(=O)(=O)c2ccc(Cl)cc2)CC1 | – | inactive: 4.95%
32 | CNc1ccc(Br)cc(C(=O)/C=C/c2ccc(OC)cc2OC)c1=O | inconclusive: 35.5 µM [inhibitor, single point] | –
33 | Cc1cc(C)c(C(=O)COC(=O)Cn2nc(-c3ccccc3)oc2=O)cc1C | inconclusive: 0.891 µM [inhibitor, single point] | –
34 | COc1cc(-c2nc(SCC(=O)Nc3ccc(C)cc3)c(-c3ccc(F)cc3)[nH]2)cc(OC)c1OC | inconclusive: 22.4 µM [inhibitor, partial curve, poor fit] | –
35 | COc1cc(/C=C(\C#N)c2nc3ccccc3[nH]2)ccc1OCc1ccc(F)cc1 | inconclusive: 7.08 µM [inhibitor, partial curve, poor fit] | –
36 | CC(=O)Oc1ccc(C(=O)Nc2cc(C)ccc2NC(=O)COc2ccccc2)cc1 | – | inactive: 7.24%
37 | Cc1cn([C@H]2C[C@H](O)[C@@H](CNS(=O)(=O)c3ccc(NS(=O)(=O)N(C)C)cc3)O2)c(=O)[nH]c1=O | inconclusive: 0.562 µM [inhibitor, partial curve, poor fit] | –
38 | Cc1cc(Cl)ccc1NC(=S)NCC(C)C | inconclusive: 0.501 µM [inhibitor, full curve, poor fit] | –
39 | CCC(=O)c1ccc(OCC(O)CNCCc2ccc(Cl)cc2)cc1 (configuration not stated) | inconclusive: 35.5 µM [inhibitor, single point] | –
40 | CC(C)(C)[C@@H]1COC(=O)[C@@H](Cc2ccc(F)cc2)CC/C=C\C[C@@H](CC(=O)N(CCO)Cc2ccccc2)C(=O)N1 | – | inactive: -25.5%
41 | CCCCNC(=O)CSc1nnc(Cc2ccccc2)n1CC | inconclusive: 2.51 µM [inhibitor, partial curve, poor fit] | –
42 | Cn1nc(-c2ccccn2)nc2c(=O)n(C)c(=O)nc1-2 | active: 2.24 µM | –
